Reference: the supplement of paper PMC11417369
This is one part of the list.

Tested on: PfHDP1 homeodomain (GST-tagged)
Test: gcPBM binding intensity (ln(normalized median fluorescence intensity)); higher = stronger DNA binding
Outline: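 In this array assay, P. falciparum DNA-binding domains with a GST tag, expressed in E. coli, were applied for 1 h to primer-extended double-stranded 36-bp intergenic genomic probes and negative controls on an Agilent 4 × 180k array. Bound protein was visualised with Alexa488 anti-GST antibody at 488 nm. Binding intensity is the highest Masliner-normalised natural-log median intensity across replicate spots of either probe orientation.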

Sequence	gcPBM binding intensity (ln)
ATGTCTATATATTAAGGTACACATATATGCTATTCA [XGTACX_site6008]	6.48
ATACATATTAACAAGGTGCAAATGGATTTCATAAAA [GTGCAC_site9775]	9.11
TTTTTTTTTTTGTGAGTGCACGTATGAAGAGAAAAA	9.19
TTATGGAACCCCATTCGTACATAAATATTTTATATA [XGTACX_site7112]	6.16
GTATAATATGAACACACACACACACCCAAAAAAAAA [CACACA_site5152]	6.85
TATATAACTTTATTTTTCTTTACTTATTTTATTTTA [GTGCAC_negctrl_site66]	6.28
CTAGCAAATACATACACACACACACGGATACCTATA [CACACA_site7609]	6.93
ATATATATATATATATGTACATATTATTAATAATAT [XGTACX_site6667]	9.32
TTTTTTAAAATATATATAATGAATTTTTTTTTTTTT [CACACA_negctrl_site1577]	5.81
AAAGAAAAAAAAAAAAGTACATAAATATAAAAAGAA [XGTACX_site6753]	6.65
AATTGTTCGATATATGCACACAGTTTTGTTATTTTT [CACACA_site1615]	9.38
TATTTATATTTATATACACACTATATAACTCAAACA [CACACA_site6611]	6.57
TATATACAAATATGCTGTACAAAAAAAAAAAAAAAA [XGTACX_site4732]	6.33
TATAATAATAATGATAGTACGTATGAGTTCAAAAAA [XGTACX_site608]	6.47
CGGTATTTTTTAATTTGTACGCATATACAATAATTA [XGTACX_site8603]	6.51
TTTTATTATTTATATACACACTTGCTGAAATGTTAT [CACACA_site5919]	6.87
GATATGATTACCTTATGGTGTTTTTGATGGATAGTT [CACACA_negctrl_site1504]	6.26
TTTTTTATTTTAATGTATTATTTTTATGTAATATAT [GTGCAC_negctrl_site391]	6.3
TACTTACAGATAATAACACACAAGAAAAAAATAAAA [CACACA_site4716]	6.61
TATATATATATCAAGTGTACTTGTGTTTGTAATATT [XGTACX_site8854]	8.6
AATATTTATGGGTGCACACAAACATACAGATATATA [CACACA_site5810]	10.3
AAAAAACAGACATACACACACACACGGATATTTATA [CACACA_site7570]	6.7
TACAAATATGGACACACACACATATTTATATTTATA [CACACA_site6420]	6.75

Sequence	gcPBM binding intensity (ln)
ATATAAATGTATATGACACACATATATATATATATA [CACACA_site889]	9.54
TTTTTTTTGTTGTTGTTGCACTTGATAGGAATGGCT [GTGCAC_site9701]	7.73
CCATTTACAAAAAGGAGTACACAAATATATGTTTAA [XGTACX_site649]	6.38
AAAAAAAACAGACACACACACAAATACATACACAAA [CACACA_site705]	6.97
ATGTTGCACAATGTTACACACACAATATATATCGTT [CACACA_site4833]	10.7
TATATTAGAAGAAATTCACACATTCATGTAATCTTA [CACACA_site4706]	5.78
AAAAAAATAAAAAGGAACGTCTATAGTTAATTTATT [CACACA_negctrl_site919]	6.34
TTCTTATATAAATACACACACAAAATATCTACAATG [CACACA_site4568]	6.88
TTTGAATATATAAATATGCACACTTCTATTATAAAT [CACACA_site3359]	7.91
TATTATTTTTCCTAATGTACAAAATATATATTTTTA [XGTACX_site2727]	6.56
TATATATATATATTTACACACATTCATATAAATTCA [CACACA_site3532]	8.88
GCCTACAGACTTAGTAGTACATGAGAAGATATATAT [XGTACX_site2269]	6.58
AATATGAACGGACACACACACACAAAAAAAAAAAAA [CACACA_site5154]	6.48
AAAATTTTTAAATATTGTACTATTTATTTTTAGCAT [XGTACX_site6190]	6.6
AAAATAAATAAATACACACACACGAATATATATATA [CACACA_site1683]	8.57
TTTTAAAAATAATAAATAAATAAAATTGAAGTTCCA [CACACA_negctrl_site305]	6.03
TATATTTATTTATATACACACACTTGTATAAAAAAT [CACACA_site2036]	6.74
TATCTATATGGGAACACACTCATAAATATATATCTA [CACACA_site4815]	6.49
TATATCAAAATACATACACACATTTGTATATACATT [CACACA_site2696]	6.75
TTAAATATTTTTAGAGTGCATGTAATAAAAATATAA [GTGCAC_site9414]	7.72
TATATACAGAAACACACACACACATATATATATATA [CACACA_site2247]	9.07
TATAAAAATATTTAATGTACGAATCTGTGATATATC [XGTACX_site7881]	6.3
AAAATACACGCATACACACACACACGCGCACATATA [CACACA_site6448]	7.53

Sequence	gcPBM binding intensity (ln)
ATTATTAAAAGAAGAAGTACTTATATATTAATATTA [XGTACX_site5227]	6.65
TTTTCATGTTGTAAAGCATGCTTTACTCATAAAAAA [TGCATGCA_site917]	6.38
CTAAACAGAATTATCACACATATAAATATAAACATA [CACACA_site4560]	6.35
ATATATTACATATGTGTGCACGTTCCAAAATTTTTA	10
GGTCTTATTTTTAGTAGTACAAATATAATATACATA [XGTACX_site6483]	6.52
TTTTTTTTTTTTTGTTGTACCCATCATATATACATA [XGTACX_site4342]	6.5
TTATTTTATTTTGAAGCATGCTTTTTGCTGTGATAA [TGCATGCA_site278]	6.37
AAATAATATTTATACACACACACATATTTATATACA [CACACA_site6403]	6.92
TTATGCGTTTGCAAAAGTACATATCTATTATTTTTA [XGTACX_site7609]	8.78
TTTTTAATTAACTTTTTATAAATAAATAAAAATATA [GTGCAC_negctrl_site334]	5.84
TTCACATACAGAAACACACACATATTTATAAATTAA [CACACA_site7699]	6.9
AAAAGAAAATTAAATTAACACACATAAATATATATA [CACACA_site8482]	6.7
ATTGTATATGTATATGCACACAATATATGTACTTAT [CACACA_site2611]	9.66
GATATATTATTTGAATGTACATATTATATTTATATT [XGTACX_site907]	6.37
TAACATATTATATATACATGCATACGTGAACTAATC [TGCATGCA_site888]	6.66
GTTAGAATTGTTAGGTGGTCAAAAAGGAGAAAAAAA [XGTACX_site2086]	6.64
TTTTTTTAGTTAATTAAACACACAAAAAAAAAAATA [CACACA_site9301]	6.15
CAACTAACATATATTCAACACACATATACCTTCAAC [CACACA_site8988]	6.43
ATAATATCATAATATTGTACATATTTTATTTTAAAT [XGTACX_site1115]	6.21
TTTTTTGTTTGAATGGTGCATTTTGTAATTATATTT	9.66
TTTTGATATAAATATTAGATTAATAAATAAAAAAAT [CACACA_negctrl_site1635]	6.28
TTAAAATAGATATTAGTGCAAAAAAAAAAAAATAAA	9.63
CTTAAATTGAAATGTTGTACAAAGTAAAAACAATGA [XGTACX_site2123]	6.59

Sequence	gcPBM binding intensity (ln)
ATATAATGTTGTAATAGTACTTTTTTCATATAAATA [XGTACX_site2666]	6.51
AAAGAATACAAAATTGCACACATATTGTGAAAATGT [CACACA_site9327]	9.59
TATTAACACAATAGCGCACACTTTTAATATTTTATA [CACACA_site1617]	7.35
TATTTATATATATGATGTACATAAGGTGTAATGTTA [XGTACX_site5591]	7.26
ATATATATTTAATGTTGTACATAAAAAATATATAAA [XGTACX_site7774]	5.94
TATTTACATACAAAATGTACAAAAATATATTTTTTT [XGTACX_site888]	6.45
TACATGAATATTTATACATGCACACTAAAATAAAGA [TGCATGCA_site611]	8.2
ATCTCTTATATATTCACACACATATATATAATTATA [CACACA_site1502]	7.27
AAATATAATAACGAACGTACTTATTATAATTTGTAA [XGTACX_site2342]	6.28
TATAATTTAACGACATGTACATATAAAAAAATATTT [XGTACX_site2395]	6.68
CACCCCCACAGACACACACACACACCGATATATATA [CACACA_site8010]	7.07
CATATTTTATTATATACATGCAATTTTAATATATAT [TGCATGCA_site544]	6.63
TGTAGATTTTGTAACACACACATATAAATACCTATA [CACACA_site7183]	6.61
TTATTTATATTTTTTTGTACACATATTGTATACATA [XGTACX_site1178]	6.85
AAAATGTATTCTCTCATGCACACTTTCTTTAAGGGA [CACACA_site2196]	8.5
ATACACATTCTTCCGACATAATAAGAAAAAGAAAAA [CACACA_negctrl_site9]	6.32
TATAAACCTTTTTGCACGCACACAAAAAAAAAATAA [CACACA_site168]	9.61
AAACATATATACATATGTACATATATACATATATGT [XGTACX_site5779]	6.53
GACTATAATGTTTTGGTGCGTCATGTTATGGTCATC	6.6
GATTAACAACATATTAGTACATATATTATATATATA [XGTACX_site7646]	7.3
TTCGGAAAAATTAAAGCACACAAAAAAAAATAAAAA [CACACA_site8296]	6.55
